# Measurements as given in the supplement of paper PMC11417369.
# This is one part of the list.
# Test system: PfHDP1 homeodomain (GST-tagged)
# Test: gcPBM binding intensity (ln(normalized median fluorescence intensity)); higher = stronger DNA binding
# Procedure, shortened: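 An Agilent 4 × 180k array of primer-extended double-stranded 36-bp intergenic genomic probes, with negative controls, was incubated for 1 h with GST-tagged P. falciparum DNA-binding domains expressed in E. coli. Alexa488 anti-GST antibody detected bound protein, scanned at 488 nm. Binding intensity is the highest Masliner-normalised natural-log median intensity across replicate spots of either probe orientation.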
row,Sequence,gcPBM binding intensity (ln)
1,AAATAATAAAGTATAACACACATATTTATTTATATA [CACACA_site7822],6.15
2,AAAATTAAAAAAATATGTACTTATGGGTAACATCAT [XGTACX_site5548],5.92
3,AATATTCAATATAAAGTGCATTATTGTGCCCCTAAT,8.68
4,GTTATACATTTGAAAAGTACTCATGATTTTTTTTTT [XGTACX_site8177],6.71
5,ATAAAAATCAAAAAAAATACATAATAGTAATAATAA [GTGCAC_negctrl_site481],6.42
6,TTTTTATTGTTATACTTATATTATTTTATGATTAAA [XGTACX_negctrl_site262],6.54
7,ATTATATAATAATGCATGCACCTTATTTTCATTTCA [GTGCAC_site9922],8.28
8,TTTCTTTTTTTGGGCACACAAAATTTTCTCATTTTA [CACACA_site68],6.65
9,AAAATAAAAAAAATGAATTAGTTAAATGAAAAATAA [CACACA_negctrl_site1294],6.31
10,TGAATAAATAAACACACACACATATATATATCTGTA [CACACA_site4184],6.44
11,ATAAAATTATTATATACATGCAAAATTAATATATTG [TGCATGCA_site507],6.28
12,TATCTTCATATATGGTGTACAGATTTTTTTTTTTTT [XGTACX_site5545],6.5
13,TAAACAAATAAATATTGTACATTTTTTCCTTTTAAT [XGTACX_site5594],6.08
14,AAGGATAATATATTAGAACACACATATATATGTAAA [CACACA_site7942],6.69
15,TTTATATAAAATTATTGTACAGTTTTAATATTTTAA [XGTACX_site6807],6.4
16,TACATACACAAATACACACACAAATACATACACAAA [CACACA_site704],7.33
17,ATATATTTATTTATATGTACATATTATATATTATAG [XGTACX_site3371],6.58
18,GATTATACAAAATATACACACGTGTACAGAAATATT [CACACA_site8305],6.79
19,TTATATTAATTTTGTTGTACTATTTGTGCATTAAAT [XGTACX_site4790],10.8
20,AAGATATGAACATTTTGTACTTAAAAATTCAATATT [XGTACX_site7103],5.95
21,CACAGACACGGACACACACACATATATAATATATAT [CACACA_site4495],7.17
22,TACAATCCATATTGTTGTACATTTATAAAATTTACA [XGTACX_site3053],6.15

row,Sequence,gcPBM binding intensity (ln)
1,CAATGGTACATACATACACACACACTAATAAAAAAA [CACACA_site8450],6.8
2,GTATATATATAAGAAGAAATATATAAATAAAATATA [CACACA_negctrl_site503],6.41
3,ATTCGTCACATTTTTTGATATATATATATATATATA [CACACA_negctrl_site1785],9.46
4,AATATATAAATGTTGTGTACTAAGCAATATATTTTA [XGTACX_site2483],6.59
5,TAAAAAATATAAACTGCACACACACTAATAAAGAAA [CACACA_site8119],7.18
6,GCTTATTAATATCATACACACATAGATATATTTATA [CACACA_site3104],6.79
7,CTATTATCGGTTCCTACACACAAATATATATGTCTA [CACACA_site3579],7.04
8,ATATAGTTGTCATATTGTACACTTTAGGGTTGGTTA [XGTACX_site7339],6.64
9,AGTTGGATACGAAGATGTACAATAATAATAATTAAG [XGTACX_site3561],6.83
10,ACATTTTATATATGTAGTACATATTATAGATAATTT [XGTACX_site1976],6.41
11,TCACTATAATAATTTACACACATTTTAAGAAAATGG [CACACA_site5867],6.46
12,TATTTTATTTTTTTATGTACACAAAAAAAAAAAAAA [XGTACX_site945],6.58
13,ATCAAAAACATACCTACACACACAATATGTATATAT [CACACA_site9171],6.59
14,TATTATGTTTATTAAACATGCATATATTTATTTATA [TGCATGCA_site187],6.55
15,ATAAATGTTATGCATACACACTTTATACCTATTTAA [CACACA_site5967],6.98
16,AATCCTTACAGACACACACACACGAATAAATAAAAA [CACACA_site480],6.93
17,TTATAATTTTTGAGCACACACAAGCATATATATATA [CACACA_site1798],8.98
18,TATATATGTATATGTGTGCACCTTATTTCTTTTATT [GTGCAC_site9513],9.55
19,TATGTATTATCAAAAAGTACTAAAAAAAAATAATAA [XGTACX_site4703],6.54
20,ATAGCAATAATGGAAAGTACAAAAAAACTTGTTATA [XGTACX_site8518],6.43
21,TATATATATATATATAAGCTTATAATAAAACAAAAA [XGTACX_negctrl_site568],9.36
22,TGTATTAATAAAAATACACACATCATATTATATAAA [CACACA_site3534],6.43
